# In PubChem BioAssay AID463173 (ICCB-Longwood Screening Facility, Harvard Medical School, 2010):
# Among all 52,000 compounds or so, about 4,300 (8.3%) were called active. Rule as the data show it: active = survival mostly below about 52% (no sharp cut-off); inactive = mostly above about 56%. This is one part of the list.
# Tested on: DeltatarO mutant
# Assay: growth inhibition of S. aureus wild type versus tarO mutant, primary screen, teichoic acid synthesis inhibitors, RN4220, OD600 (AID 463173)
# Conditions: OD600, 18 h, active compounds read low, screened at 18.75 µg/mL (by protocol)
row,Compound,survival
1,COc1ccc(Cl)cc1NC(=O)c1cc(S(=O)(=O)N2CCc3ccccc32)cn1C,inactive: 82%
2,NC(=O)c1ccc2nc(N)sc2c1,inactive: 102%
3,Cc1ccc(-c2nc3cc(N=Cc4ccccc4O)ccc3o2)cc1,inactive: 58%
4,COc1cc2c(C(=O)N3CCN(c4cccc(C)c4)C(C)C3)cn(CC(C)C)c(=O)c2cc1OC (configuration not stated),active: 46%
5,Cc1cccc(-n2c(=O)c3ccccc3n(Cc3ccccc3C#N)c2=O)c1,inactive: 81%
6,Cc1nn(CCC(=O)NC(C)C)c(=O)c2nn(-c3ccccc3)c(C)c12,inactive: 74%
7,CC(C)c1ccc(C2=CC(c3cccc(Cl)c3)n3ncnc3N2)cc1 (configuration not stated),active: -1%
8,CCC(=O)Nc1sc2c(c1C#N)CCCC2,inactive: 97%
9,Cc1ccc(C)c(Cn2c3ccccc3c3cnn(CC(=O)N4CCCCC4)c(=O)c32)c1,inactive: 82%
10,CCCN1C(C(=O)c2ccccc2)=C(OC(=O)c2ccc(F)cc2)c2ccccc2S1(=O)=O,active: 31%
11,CCOc1ccc(NC(=O)Cn2c(CCC(=O)O)ccc2-c2ccc(Cl)cc2)cc1,inactive: 62%
12,CN(CCC#N)CC1Cc2ccccc2O1 (configuration not stated),inactive: 98%
13,COc1cccc(C(=O)CN2CCN(S(=O)(=O)c3ccc(Cl)cc3)CC2)c1,inactive: 74%
14,COc1cc2ccccc2cc1C(=O)Nc1ccc2oc(-c3cc(Br)ccc3Cl)nc2c1,inactive: 75%
15,CCOc1ccccc1NC(=O)c1sc2nc3c(cc2c1N)CN(Cc1ccccc1)CC3,inactive: 63%
16,O=C(NCc1ccco1)c1ccc2c(c1)N(Cc1ccc(F)cc1)C(=O)c1ccccc1S2=O (configuration not stated),inactive: 76%
17,O=C(CN1C(=O)CSc2ccc(S(=O)(=O)N3CCCCC3)cc21)NCc1ccc(F)cc1Cl,inactive: 79%
18,COc1cc(NC(=O)CCc2c(C)n(C)c3cc(-c4ccccc4C)nn3c2=O)cc(OC)c1OC,inactive: 124%
19,O=C(CSc1nc2c([nH]c3ccccc32)c(=O)n1-c1cccc(Cl)c1)N1CCc2ccccc21,inactive: 73%
20,CCc1nnc(NC(=O)c2nc(S(C)(=O)=O)ncc2Cl)s1,inactive: 66%
21,COc1cccc(Cc2nc3ccccc3nc2SCC(=O)N2CCCCC2C)c1 (configuration not stated),inactive: 79%
22,Cc1ccc2nc(NCc3ccccc3Cl)c3nnnn3c2c1,inactive: 91%
23,c1ccc(-c2nnc(CN3CCN(c4ccccc4)CC3)o2)cc1,inactive: 57%

row,Compound,survival
1,COc1ccc(-c2noc(COc3ccc(Br)cc3C)n2)cc1OC,active: 33%
2,O=C(NCC1CCCO1)c1ccc(NC(=O)c2ncn[nH]2)cc1 (configuration not stated),inactive: 95%
3,CCc1cccc(C)c1NC(=O)Cn1ccn(Cc2ccc(Cl)cc2)c(=O)c1=O,active: 41%
4,CCOc1nc(NC(C)C)nc(NC(C)C)n1,inactive: 76%
5,Cc1ccc(-c2[nH]c(-c3ccccc3)nc2SCC(=O)NCC2CCCO2)cc1 (configuration not stated),inactive: 74%
6,COc1cccc(CNC(=O)C(=O)Nc2ccc3nc4n(c(=O)c3c2)CCCCC4)c1,inactive: 97%
7,Cc1ccc(N2CCN(C(=O)c3cc(S(=O)(=O)N4CCCCC4)c[nH]3)CC2)c(C)c1,inactive: 102%
8,Cc1ccc(/C=N/NC(=O)C2=NNC(=O)C2C)o1 (configuration not stated),inactive: 87%
9,Cc1ccc(-c2cc(C(=O)Oc3ccccc3Cl)no2)cc1C,active: -1%
10,CCN(CC)C(=O)CSc1nnc(-c2ccco2)n1CCCOC,inactive: 89%
11,Cc1ccc2nc(Cl)c3cc(C(=O)NC4CCC(C)CC4)sc3c2c1 (configuration not stated),inactive: 57%
12,Cc1ccc2c(c1C)NC(=O)CC2c1ccc(Cl)cc1Cl (configuration not stated),active: 4%
13,Cn1c(C(O)c2ccccc2)n[nH]c1=S (configuration not stated),inactive: 93%
14,CCc1ccc(OCC(=O)Nc2ccc(-c3nc4ncccc4o3)cc2)cc1,inactive: 65%
15,Cc1ccc2c(c1)nnn2C1CCN(CC(=O)N2c3ccccc3CC2C)CC1 (configuration not stated),inactive: 95%
16,O=C(CC1N=C2c3ccccc3N=C(SCc3cccc(F)c3)N2C1=O)NCc1ccc2c(c1)OCO2 (configuration not stated),inactive: 97%
17,Cc1ccc(OCC(=O)Nc2cccc(C(=O)OCc3cc(=O)n4nc(C)sc4n3)c2)cc1,inactive: 78%
18,O=C(CN1CCC(n2nnc3cc(F)ccc32)CC1)N1CCCc2ccccc21,inactive: 73%
19,O=C(O)c1ccc(NC(=O)c2cn(-c3ccccc3)nc2-c2ccc(Br)cc2)cc1,active: 24%
20,CC(=O)c1ccc(N2CCN(c3ncnc4onc(C)c34)CC2)cc1,inactive: 55%
21,CCN(CC)C(=O)Cn1cc(/C=C(\C#N)C(=O)N2CCN(c3ccccc3)CC2)c2ccccc21,inactive: 78%
22,CC1CCC(NC(=O)c2ccc(CS(=O)(=O)c3c(Cl)cccc3Cl)o2)CC1 (configuration not stated),inactive: 69%
23,COc1ccc(OCC(=O)Nc2ccccc2C(=O)OCc2cc(=O)n3nc(C)sc3n2)cc1,inactive: 95%

row,Compound,survival
1,COc1cc(-c2nc(-c3cccc(Cl)c3)c(-c3ccccc3)[nH]2)cc(OC)c1OC,inactive: 126%
2,COC(=O)c1ccc(CSc2nc3c(c(=O)[nH]2)CCC3)cc1,inactive: 85%
3,O=C(OC(C(=O)NCc1cccs1)c1ccccn1)c1cccs1 (configuration not stated),inactive: 103%
4,O=C(NCCN1CCCCC1)c1ccc(Cn2c(SCc3cccc(F)c3)nc3cccnc32)cc1,inactive: 103%
5,Cc1cccc(OCC(=O)N(Cc2ccccc2)c2ccccn2)c1,inactive: 58%
6,COc1ccc(CCNC(=O)c2ccc3c(Cl)c4c(nc3c2)CCCC4)c(OC)c1,inactive: 86%
7,CS(=O)(=O)N1CCCc2cc(C(=O)Nc3cccc(C(F)(F)F)c3)ccc21,inactive: 62%
8,COc1ccc(C2C(=O)N(C3CCCCCC3)CC(=O)N2CCC2=CCCCC2)cc1 (configuration not stated),inactive: 54%
9,CCOC(=O)c1ccc2c(c1)N(Cc1ccccc1)C(=O)c1ccccc1S2,inactive: 73%
10,O=C(CCn1nnc(-c2cccs2)n1)NC1CCCCC1,inactive: 99%
11,CC(C)CCn1c(=O)c2sccc2n2c(CCCC(=O)NC3CCC(C)CC3)nnc12 (configuration not stated),inactive: 84%
12,O=C(Nc1cc(Cl)cc(Cl)c1)c1ccc(F)c(S(=O)(=O)NC2CCCCC2)c1,inactive: 74%
13,[O-][n+]1c2c(nn1-c1ccccc1)/C(=N\O)CCC2,inactive: 56%
14,CCCCc1ccc(NC(=O)CSc2nc3ccccc3nc2N2CCOCC2)cc1,active: 30%
15,COc1cccc(-c2cc(C(=O)Nc3ccn(Cc4ccc(C)cc4)n3)no2)c1,active: 33%
16,COc1ccc(CCNC(=O)CCSCc2ccccc2Cl)cc1OC,inactive: 76%
17,O=C(NCCS(=O)(=O)N1CCN(c2ccc(F)cc2)CC1)C1CC(=O)N(c2ccc(F)cc2)C1 (configuration not stated),inactive: 101%
18,CCc1ccccc1NC(=O)Cn1c(=O)n(Cc2ccco2)c(=O)c2sc3ccccc3c21,inactive: 62%
19,Cc1ccc(NC(=O)Cn2c(=O)n(Cc3ccc4c(c3)OCO4)c(=O)c3ccccc32)c(C)c1,inactive: 95%
20,Cc1ccc(C)c(N2CCN(S(=O)(=O)c3cnc(N)nc3)CC2)c1,inactive: 86%
21,Cc1ccc2nc(N3CCN(c4cccc(C)c4C)CC3)c3nncn3c2c1,active: 39%
22,Nc1nonc1C(=O)NCCNCc1ccc(Cl)c(Cl)c1,inactive: 68%
23,COc1ccccc1NC(=O)Cn1c(=O)n(Cc2ccccc2)c(=O)c2c3c(sc21)CN(C(C)=O)CC3,inactive: 92%

row,Compound,survival
1,CCn1ccc2c(OCC(=O)NCc3ccc(C)cc3)cccc2c1=O,inactive: 81%
2,Cc1oc(C)c(C(N)=O)c1C(N)=O,inactive: 100%
3,Cc1cc(C)nc(-n2nc(C)c3c2NC(=O)CC3c2cc(F)ccc2F)n1 (configuration not stated),inactive: 87%
4,CCn1nc(C)c(CCN(C)C(=O)Nc2cc(C)cc(C)c2)c1C,inactive: 83%
5,Cc1ccc(CSc2nc3ccc(NC(=O)COc4ccc(F)cc4)cc3s2)cc1,inactive: 89%
6,O=C(Nc1cnc(N2CCC(N3CCCCC3)CC2)c(C(=O)O)c1)c1ccc(Br)cc1,inactive: 102%
7,CCc1ccc(CNC(=O)Cn2c(-c3cccs3)cc3cc(F)ccc32)cc1,inactive: 119%
8,COc1ccc(N2CCN(C(C)C(=O)N3CCCC3)CC2)cc1 (configuration not stated),inactive: 85%
9,COc1ccc(-n2c(=O)c3c(c4cc(OC)ccc4n3C)n(Cc3ccc(F)cc3Cl)c2=O)cc1,inactive: 89%
10,Cc1cc(Cl)ccc1OCC(=O)Nc1c(C(=O)c2ccccc2)oc2ccccc12,inactive: 89%
11,O=C(CSc1ncc(-c2ccccc2)[nH]1)Nc1cccc(C(F)(F)F)c1,active: 12%
12,COc1cc(Cn2c(=O)sc3ccccc32)ccc1OCCC(C)C,active: -2%
13,CC(C)c1ccc2c(c1)-c1ccccc1S(=O)(=O)N2CC(=O)N1CCCCC1,inactive: 85%
14,Cc1ccccc1-c1nc(CS(=O)(=O)CC(=O)Nc2cc(Cl)cc(Cl)c2)c(C)o1,inactive: 109%
15,Cn1c(=O)cc(SCC(=O)N2CCN(c3ccccc3F)CC2)c2cc(Cl)ccc21,inactive: 70%
16,CC(C)Sc1ncc(Cl)c(C(=O)Nc2ccc(S(=O)(=O)Nc3ncccn3)cc2)n1,inactive: 50%
17,COc1ccc(CNC(=O)CSc2n[nH]c(-c3ccc(OC)cc3)n2)cc1,active: -5%
18,CCNC(=O)C1CCCN1C(=O)OCC(C)C (configuration not stated),inactive: 97%
19,Cc1ccc(NC(=O)c2cc3c([nH]c2=O)CC(C)(C)CC3=O)c(C)c1,inactive: 93%
20,COc1ccccc1NC(=O)CCS(=O)(=O)c1cc2c3c(c1)CCN3C(=O)CC2,inactive: 99%
21,O=C(O)CN1CCCC1=O,inactive: 96%
22,CCC1CCCCN1C(=O)c1nn(-c2ccc(OC)cc2)c(=O)c2c1c1ccccc1n2C (configuration not stated),inactive: 110%
23,O=C(NCc1ccccc1Cl)c1cc(=O)[nH]c2ccc(S(=O)(=O)N3CCCCC3)cc12,inactive: 54%
